Several values for one entry are separate records, joined by “and”; a condition that tells them apart may be missing. Equal entries are not always repeated. The whole screen tested about 48,000 compounds, of which about 1,200 (2.5%) were called active. Not shown: some 2% with an inconclusive outcome.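 How the source made its calls: active means activation of at least 60% and not above a set upper limit (about 1 call in 100 departs from these limits); inconclusive means activation of 40% to 60%, or above that upper limit; inactive means activation under 40%.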 Some of the results follow.

For this assay, the target named is Probable G-protein coupled receptor 32 (Homo sapiens) (UniProt O75388). The assay is described as follows: qHTS for Agonists of Human Resolvin D1 Receptor DRV1. Further: 0% is about no effect. As to conditions: CHO-K1 GPR32 beta-arrestin PathHunter luminescence, 90 min; at 76.9 µM; active compounds read high; zero percent set by DMSO-only wells. In outline: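 Agonism was scored by beta-Gal fragment complementation (chemiluminescent read, 1 h detection at ambient temperature) reporting beta-arrestin binding to GPR32 in engineered CHO-K1 cells. Compound treatment lasted 90 min at 37 C, normalized to a DMSO basal control.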
UniProt O75388, sequence (O75388 whole entry, looked up, the tested form may be a part): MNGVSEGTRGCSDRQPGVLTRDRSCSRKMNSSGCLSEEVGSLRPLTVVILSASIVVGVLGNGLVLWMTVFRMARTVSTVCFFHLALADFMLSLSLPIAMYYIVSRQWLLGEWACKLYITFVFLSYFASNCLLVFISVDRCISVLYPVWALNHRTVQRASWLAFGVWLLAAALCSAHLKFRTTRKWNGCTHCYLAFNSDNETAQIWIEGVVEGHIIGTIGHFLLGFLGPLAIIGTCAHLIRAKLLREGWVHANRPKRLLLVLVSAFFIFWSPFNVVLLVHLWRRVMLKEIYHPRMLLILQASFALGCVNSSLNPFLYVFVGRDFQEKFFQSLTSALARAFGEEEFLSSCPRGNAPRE
For orientation: Quantitative high-throughput screening tests each substance at several concentrations.
With `CCOC(=O)C1=C(CN2CCN(c3cc(C)ccc3C)CC2)NC(=O)NC1c1ccc(Cl)cc1` (centres undefined), the activation was inactive: -24.5%.
In the case of `CCOc1ccc(CCNC(=O)Cn2nc(CC)n3c(cc4sccc43)c2=O)cc1`, the activation was inactive: -13.4%.
The same measure for `Fc1ccc(Cn2c(-c3cccc(Br)c3)nc3ccccc32)cc1`: inactive: -13.9%; for `COc1ccc(C2NC(=O)N(C)C3=C2C(=O)N(c2ccc(F)cc2)C3)cc1` (centres undefined): inactive: -7.03%.
The same measure for `O=C(Nc1c2c(nn1-c1ccc(Cl)cc1)CS(=O)(=O)C2)c1ccccc1F`: inactive: -4.63%; for `O=C(NCCc1nc2ccccc2n1CCCOc1ccc(Cl)cc1)C1CCCCC1`: inactive: 18.5%.
The same measure for `Cc1nn2c(C)c(C(=O)NCC(C)c3ccccc3)cnc2c1-c1ccccc1` (centres undefined): inactive: -19.3%.
Turning to `COc1ccc(C(=O)Nc2noc3ccccc23)cc1`, the activation is inactive: -14.6%.
The same measure for `Cc1cccc(NC(=O)CSc2nccn2-c2cccc(Cl)c2)c1C`: inactive: -18.5%.
The same measure for `CCOc1cc(C2c3c(-c4ccccc4O)n[nH]c3C(=O)N2Cc2cccnc2)ccc1O` (centres undefined): inactive: -13.9%; for `CCC(C(=O)NCc1ccccc1Cl)n1nc(C)c2sc3ccccc3c2c1=O` (centres undefined): inactive: -7.9%; for `CSc1ccc(/C=C2/C(C)=C(CC(=O)O)c3cc(F)ccc32)cc1`: inactive: 4.08%.
The same measure for `Cc1ccc(NC(=O)c2sc(-n3nc(C)c(Cc4ccc5c(c4)OCO5)c3C)nc2C)cc1C`: inactive: 4.49%; for `Cc1cc(C)cc(NC(=O)CSCc2cc(=O)c3ccc(C)c(C)c3[nH]2)c1`: inactive: -13.2%; for `CNS(=O)(=O)c1cn(CC(=O)N2CCN(c3cc(C)ccc3C)CC2)cc1S(=O)(=O)NC`: inactive: -6.82%.
With `O=C(CCCn1c(=O)c2sccc2n(Cc2cccc(Cl)c2)c1=O)NCc1ccc2c(c1)OCO2`, the activation was inactive: -21.9%.
The same measure for `CCOC(=O)CN1C(=O)c2cccnc2Oc2ccccc21`: inactive: -13.8%.
The same measure for `O=c1cc(-c2ccccc2)n2c(SCc3cccc([N+](=O)[O-])c3)nnc2[nH]1`: inactive: -3.2%.
As for `COc1ccc(NC(=O)CSc2nc(-c3ccco3)nc3cc(=O)[nH]n23)cc1`, the activation is inactive: -8.01%.
For `CC(=O)Nc1ccc(NS(=O)(=O)c2c(C)nc3sccn3c2=O)cc1`, the activation is inactive: -3.96%.
The same measure for `COc1cccc(Cn2c(NCc3ccc(C)cc3)nc3c2c(=O)n(C)c(=O)n3C)c1`: inactive: 20.3%; for `Cc1ccc(-n2ncc3c(Nc4ccccc4C)ncnc32)cc1`: inactive: -4.1%.
The same measure for `CCOc1ccc(CNC(=O)C2CCCN(S(=O)(=O)N(C)c3ccc(F)cc3)C2)cc1OC` (centres undefined): inactive: -2.17%.
Turning to `Cc1nn(-c2ccc3nnc(C)n3n2)c(C)c1CCC(=O)Nc1ccc(OC(F)(F)F)cc1`, the activation is inactive: -13.7%.
The same measure for `COc1ccc(-c2cn3nc(N4CCCC(C(=O)NCc5ccccc5OC)C4)sc3n2)cc1` (centres undefined): inactive: -7.3%.
Take `CC[C@]12CCCN3CCc4c(n(c5ccccc45)[C@@](O)(C(=O)OC)C1)[C@@H]32`: the activation is inactive: -9.31%.
The same measure for `CC(=O)c1ccc(NC(=O)c2ccc(-c3nc(COc4ccc(C)cc4)c(C)o3)cc2)cc1`: inactive: -2.94%; for `CCOC(=O)c1cnc2c(ccc3ccccc32)c1Nc1ccc(Cl)cc1`: inactive: -4.28%; for `CCC(=O)N1CCc2cc(S(=O)(=O)NC(CC(C)C)C(=O)NCc3ccc(F)cc3)ccc21` (centres undefined): inactive: -6.02%.
As to `C[N+]1(CC2COC(c3ccccc3)(C3CCCCC3)O2)CCCCC1` (centres undefined), the activation was inactive: -9.1%.
The same measure for `COC(=O)c1cc(-c2ccc(OC)c(OC)c2)c2c(=O)[nH]c(=O)n(C)c2n1`: inactive: -6.74%; for `Cc1cccc(C)c1NC(=O)Cn1c(=O)n(Cc2ccco2)c(=O)c2ccc(C(=O)NC3CCCC3)cc21`: inactive: -4.35%.
Consider `Cc1ccc(NC(=O)Cn2c(=O)n(Cc3nc(C)no3)c(=O)c3cc4c(cc32)OCO4)c(Cl)c1`, for which the activation was inactive: -1.97%.
Take `Cc1ccc(S(=O)(=O)c2nc(-c3ccco3)oc2SCC(=O)Nc2ccc(F)cc2)cc1`: the activation is inactive: -26.1%.
The same measure for `O=C(CCn1c(=O)c2sccc2n(Cc2cccc(F)c2)c1=O)NCc1ccc2c(c1)OCO2`: inactive: -14.6%; for `CC1Cc2cc(S(=O)(=O)CCC(=O)Nc3ccc(F)c(Cl)c3)ccc2N1C(=O)C1CC1` (centres undefined): inactive: 14.2%; for `Cc1nc2sc(C(N)=O)c(N)c2c(-c2ccc(Br)cc2)c1C(=O)Nc1ccc(Cl)cc1`: active: 88%.
The same measure for `Cc1cccc(NC(=O)c2ccc(-c3nc(CSc4ccccc4)c(C)o3)cc2)c1C`: inactive: 17.4%; for `O=c1c2ccccc2n(Cc2ccccc2F)c(=O)n1-c1cccc(F)c1`: inactive: -8.48%; for `Cc1ccc(C(=O)Nc2onc3c2CCCC3)cc1`: inactive: 38.5%.
As to `O=C(CSc1nnc2ccc3ccccc3n12)c1ccc(F)cc1`, the activation was inactive: -18.5%.
The same measure for `COc1ccccc1CNC(=O)c1cnc2sc(N3CCCCCC3)nn2c1=O`: inactive: -15.4%; for `Cc1ccccc1C(=O)Nc1ccc2c(c1)CCCN2C(=O)c1cccs1`: inactive: -13%.
The same measure for `CSc1ccc(CNC(=O)CCn2c(=O)c3cccn3c3ccc(F)cc32)cc1`: inactive: -19.2%.
The same measure for `COC(=O)c1cc2occc2n1Cc1cccc(C)c1`: inactive: -27.7%.
Consider `COc1ccc(C(=O)N2CCC(c3nc(-c4ccc(S(=O)(=O)N5CCCC5)cc4)no3)CC2)cc1`, for which the activation is inactive: -11%.
The same measure for `COc1ccc(C(=O)Nc2ccc(-c3nc4ccccc4s3)cc2C)cc1Cl`: inactive: -4.93%; for `COCCNC(=O)CCN1C(=O)c2cccnc2Oc2ccc(C)cc21`: inactive: -6.46%; for `CC(=O)Nc1nonc1-c1nnc(SCC(=O)Nc2ccc(C)c(Cl)c2)n1-c1ccccc1`: inactive: -7.87%.
As to `COc1ccc(-n2c(=O)c3ccccc3n(Cc3ccccc3C)c2=O)c(OC)c1`, the activation was inactive: -17%.
The same measure for `NC(=O)Cn1c(=O)n(CCCCCC(=O)NCc2ccccc2)c(=O)c2sccc21`: inactive: -6.84%; for `Cc1ccc(-n2nc(C(=O)Nc3ccc(C)c(F)c3)c3c4ccccc4n(C)c3c2=O)cc1`: inactive: -4.88%.
The same measure for `CCOc1ccc(C(=O)c2cnc3ccc(Cl)cc3c2S(=O)(=O)c2ccc(C)cc2)cc1`: inactive: -2.92%; for `CCc1ccccc1Nc1nc2cc(Cl)c(Cl)cc2nc1-n1nc(C)cc1C`: inactive: 7.43%; for `Cc1ccc(-n2nc(CO)c(C(=O)NCCCc3ccccc3)n2)cc1`: inactive: -7.42%.
In the case of `COc1ccccc1NC(=O)CSc1nc(-c2ccccc2F)nc2cc(=O)[nH]n12`, the activation is inactive: 1.27%.
The same measure for `CCN1CCc2nc3sc(C(=O)c4ccc(F)cc4)c(N)c3cc2C1`: inactive: -55.2%; for `Cc1ccc(-n2c(=O)c3c(c4cc(C)ccc4n3C)n(CC(=O)NCc3ccccc3)c2=O)cc1`: inactive: -3.96%.
The same measure for `CC(C)(C)c1ccc(C(=O)N2CCC(c3nc4ccccc4o3)CC2)cc1`: inactive: -14.1%; for `O=C(CCC1N=C2c3ccccc3N=C(SCc3ccccc3F)N2C1=O)NCc1ccc(F)cc1` (centres undefined): inactive: 10.2%.
The same measure for `Cc1ccc2occ(CC(=O)N(Cc3ccc(C(C)C)cc3)C3CCS(=O)(=O)C3)c2c1` (centres undefined): inactive: -41.7%; for `COc1ccc(NC(=O)c2c(NCc3cccc(OC)c3)sc3c2CCCC3)cc1`: inactive: -16.3%.
On to `CC1=C(c2ccc(Cl)cc2)S(=O)(=O)N=C1N1CCC(C(=O)NCc2ccccc2F)CC1`, for which the activation was inactive: -11.6%.
The same measure for `COc1ccc(-c2onc(C)c2C)cc1S(=O)(=O)NCC1CCN(Cc2cccc(F)c2)CC1`: inactive: 15.8%.
The same measure for `COc1ccc(CCNc2nc3c(-c4cccc(C)c4)nnn3c3ccccc23)cc1OC`: inactive: 5.53%.
Consider `COc1ccc(NC(=O)Cn2c(=O)ccc3cc(S(=O)(=O)N4CCCC4)ccc32)cc1Cl`, for which the activation is inactive: 18.4%.
The same measure for `Cc1cccc(N2CCN(C(=O)Cn3nc(Cc4cccnc4)c4ccccc4c3=O)CC2)c1C`: inactive: -22.8%.
The same measure for `COc1ccc(S(=O)(=O)N(CC(=O)Nc2cccnc2)c2ccc(Cl)cc2)cc1`: inactive: -8.1%; for `CCOc1ccccc1CNC(=O)c1cccn1-c1nnc(N2CCCC2)s1`: inactive: 18.7%; for `COc1ccc(CNC(=O)Cn2c(=O)cc(-c3ccccc3)c3c(C)nn(C)c32)cc1`: inactive: 4.98%.
As to `Cc1ccccc1NC(=O)c1c(C)oc2ccc(O)c(CN3CCN(C)CC3)c12`, the activation is inactive: -6.18%.
The same measure for `CCc1ccc2oc(C(=O)Nc3ccccc3C(=O)OC)cc(=O)c2c1`: inactive: 8.42%; for `CC(CCc1ccc(O)cc1)NCCc1ccc(O)c(O)c1` (centres undefined): inactive: 13.3% and inactive: -7.77%; for `CC(C)(C)c1ccc(-c2nc(SCC(=O)Nc3ccccc3F)n3[nH]c(=O)cc3n2)cc1`: inactive: 0.123%.
The same measure for `Cc1cccn2c(=O)c(C(=O)NCCc3ccc(S(N)(=O)=O)cc3)c(O)nc12`: inactive: -7.04%; for `Cc1ccccc1CSc1cn(CC(=O)N2CCCCCC2)c2ccccc12`: inactive: -33.4%; for `O=C(Nc1ccc(Cl)c(C(F)(F)F)c1)C1CCN(S(=O)(=O)c2cccc3nonc23)CC1`: active: 79%.
The same measure for `O=C(O)Cn1ccc2cc(S(=O)(=O)N3CCCCCC3)ccc21`: inactive: -9.24%; for `COc1ccc(CNC(=O)COCc2cc(-c3cccs3)on2)cc1`: inactive: -4.38%; for `O=C(CCOc1ccccc1)N(Cc1cccnc1)c1nc2c(F)cccc2s1`: inactive: -29.8%.
`CCCCn1c(NCc2ccc(N(C)C)cc2)nc2ccccc21`: the activation was inactive: -3.94%.
The same measure for `COc1ccc(S(=O)(=O)NCC(c2ccco2)N2CCN(c3ccc(F)cc3)CC2)cc1C` (centres undefined): inactive: -26.8%.
The same measure for `O=C(Nc1ccc(F)c(Cl)c1)C1CCCN(c2cnccn2)C1` (centres undefined): inactive: 5.43%.
The same measure for `COc1ccc(CC2C(=O)Nc3ccc(Br)cc32)cc1OC` (centres undefined): inactive: -18.3%.

For the origin of these results see PubChem BioAssay AID1346428 (National Center for Advancing Translational Sciences (NCATS), 2018).
